These results are taken from PubChem BioAssay AID1963576 (National Center for Advancing Translational Sciences (NCATS), 2024).

The campaign covered roughly 46,000 compounds. About 60 (0.1%) were called active. Another 3% or so got no clear call; they are omitted. Calls follow the shape of the dose curve; as a rule, active = well fitted inhibition curve with a large enough effect; inconclusive = small, poorly fitted or top-dose-only effect; inactive = no such curve, though single readings can be large or run the other way. The list shows a part of the results.

The nature of the assay: Primary qHTS assay for Inhibitors of ovarian cancer metastasis using an organotypic tumor microenvironment (TME) model. Also: nearly all actives have a fitted effect of over 65% in size.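 As to activity change, negative = inhibition: plate controls were DMSO wells for no effect and tomatine positive control wells for full effect.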 The following applies: SKOV3ip1-GFP adhesion/invasion on 3D omental model, fluorescence; series mostly up to 45.8 µM; activity change, negative = inhibition: at the top concentration. The method, boiled down:
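A 3D layer of primary human omental fibroblasts, mesothelial cells, fibronectin and collagen I, grown 48 hr, received SKOV3ip1-GFP cells in serum-free medium plus compounds at 0.36-46 umol/L. After 2 hr RT and 16 hr 37 C, fixed adherent GFP cells were counted; normalized to DMSO and tomatine.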
Regarding `Cc1nc2ccn(Cc3ccco3)c(=O)c2cc1C(=O)NCc1ccc(F)cc1`, the call was inactive.
`Cc1ccc(NC(=O)CN2C(=O)CC(C)Sc3ccccc32)c(C)c1` (stereo not drawn): the compound was classed as inactive.
Turning to `O=C(c1ccc(Nc2nc3ccccc3n3nnnc23)cc1)N1CCN(c2cccc(C(F)(F)F)c2)CC1`, the “activity change, negative = inhibition” value is inactive: -0.603%.
Take `CCOC(=O)c1cccc(NS(=O)(=O)c2cc3c(cc2C)NC(=O)CO3)c1`: the “activity change, negative = inhibition” value is inactive: -5.49%.
As for `Cc1ccc(S(=O)(=O)NCCc2csc(-c3cccc(F)c3)n2)cc1`, the outcome was inactive.
Regarding `Cn1c(SCc2ccc(Br)cc2)nc2c([nH]c3ccccc32)c1=O`, the “activity change, negative = inhibition” value is inactive: -8.14%.
As for `Cc1cccn2c(=O)c3cc(C(=O)Nc4ccc(Cl)c(Cl)c4)sc3nc12`, the “activity change, negative = inhibition” value was inactive: 1.94%.
As to `Cc1ccc(Nc2ccc(N3CCN(C(=O)c4ccc([N+](=O)[O-])cc4)CC3)nn2)cc1`, the “activity change, negative = inhibition” value is inactive: -9.77%.
As to `Cc1ccc(OCC(=O)OCc2cc(=O)n3nc(C4CC4)sc3n2)cc1`, the “activity change, negative = inhibition” value is inactive: 3.82%.
Same read-out and setting: in the case of `Cc1cc(C)n(C(C)CC(=O)NCc2ccc(Cl)cc2)n1` (stereo not drawn) it was inactive: 0.71%; in that of `Cc1c(Cl)cccc1-n1ncc(C(=O)N2CCOCC2)c1C1CCN(C(=O)OC(C)(C)C)CC1`, inactive: -2.44%; in that of `CCNC(=O)Cn1nc(C)n2c(cc3c(OC)cccc32)c1=O`, inactive: 4.57%.
As for `Cc1ccc(NC(=O)C2CCN(c3nnc(C)c4c(C)n(-c5ccccc5)nc34)CC2)cc1Cl`, the “activity change, negative = inhibition” value was inactive: -2.98%.
For `Cc1oc2ccc(O)c(CN3CCOCC3)c2c1C(=O)Nc1cccc(Cl)c1C`, the “activity change, negative = inhibition” value is inactive: 1.52%.
For `CCOC(=O)c1c(Oc2ccc(C(C)=O)cc2)nnc(-c2ccccc2)c1-c1ccccc1`, the “activity change, negative = inhibition” value is inactive: -18.9%.
Regarding `CCc1nn2c(=O)cc(COC(=O)C(CC)c3ccccc3)nc2s1` (stereo not drawn), the result was inactive.
`COc1ccc(C(=O)NCCn2cc(SCC(=O)Nc3ccc4c(c3)OCCO4)c3ccccc32)cc1OC`: the “activity change, negative = inhibition” value was inactive: 3.22%.
Turning to `CCOC(=O)Cn1c(=O)n(-c2ccccc2OC)c2nc(-c3ccc(C(C)C)cc3)nc(C(N)=O)c21`, the “activity change, negative = inhibition” value was inactive: -9.02%.
Consider `COCCCNC(=O)C1CCN(c2cc(C)nc3c(-c4ccc(Cl)cc4)c(C)nn23)CC1`, for which the “activity change, negative = inhibition” value was inactive: 23.7%.
In the case of `O=C(CC1N=C2c3ccccc3N=C(SCC(=O)Nc3ccc(F)cc3)N2C1=O)NCc1cccs1` (stereo not drawn), the “activity change, negative = inhibition” value was inactive: -8.14%.
Same read-out and setting: in the case of `CCCNC(=O)CSc1nc(-c2ccc(OC)cc2)cc(C(F)(F)F)n1` it was inactive: -0.147%.
Consider `CN(C)c1ccc(NC(=O)CSC2=Nc3ccccc3C3=NC(CCC(=O)NCc4cccs4)C(=O)N23)cc1` (stereo not drawn), for which the compound was classed as inactive.
Turning to `COc1ccc(CC(=O)N2CCc3cc(OC)c(OC)cc3C2COc2ccc(F)cc2)cc1OC` (stereo not drawn), the result was inactive.
For the compound `O=C(NCc1ccccc1)c1ccc2oc(=O)n(Cc3ccccc3)c2c1`, the “activity change, negative = inhibition” value is inactive: 120%.
Consider `COc1ccc2c(CNCc3cccs3)c(C(=O)O)n(Cc3ccccc3F)c2c1`, for which the compound was classed as inactive.
Take `CC1CCN(C(=O)c2cccc(NC(=O)c3nsc4ccccc34)c2)CC1`: the “activity change, negative = inhibition” value is inactive: 9.67%.
For `CCOC(=O)COc1ccc(C)cc1C(=O)c1ccn2nc(-c3ccc(F)cc3)cc2n1`, the compound was classed as inactive.
As for `Cc1c(C(=O)NC(C)c2ccccc2)sc2nc3n(c(=O)c12)CCCC3` (stereo not drawn), the compound was called inactive.
In the case of `COCCNC(=O)c1ccc2c(c1)N=C(C)c1cc(C)ccc1S2`, the “activity change, negative = inhibition” value is inactive: -9.62%.
Consider `NS(=O)(=O)c1ccc2nc(NC(=O)COc3ccc(Cl)cc3Cl)sc2c1`, for which the “activity change, negative = inhibition” value was inactive: 7.5%.
`COc1cccc(C(=O)Nc2cccc(C(=O)OCc3cc(=O)n4c(C)csc4n3)c2)c1`: the “activity change, negative = inhibition” value was inactive: -5.59%.
Consider `Cn1c(SCC(=O)Nc2nc3ccccc3s2)ncc(C(=O)Nc2ccc(F)cc2)c1=O`, for which the “activity change, negative = inhibition” value was inactive: -5.01%.
`COc1ccccc1Cc1nc2ccccc2nc1SCC(=O)NCc1ccccc1Cl`: the “activity change, negative = inhibition” value was inactive: -3.43%.
For the compound `CN1CCc2nc3sc(C(=O)Nc4ccccc4C(F)(F)F)c(N)c3cc2C1`, the “activity change, negative = inhibition” value is inactive: -7.45%.
Turning to `CCOc1ccc(-n2nc3ccc(NC(=O)c4ccc(-c5cccc(Cl)c5)o4)cc3n2)cc1`, the “activity change, negative = inhibition” value is inactive: 15%.
On to `Cc1nc2scc(C)n2c(=O)c1S(=O)(=O)Nc1cccc(C(F)(F)F)c1`, for which the “activity change, negative = inhibition” value is inactive: -2.57%.
Take `Cc1ccc2c(=O)c(C(=O)c3cccc(Cl)c3)cn(CC(=O)Nc3ccccc3C(F)(F)F)c2n1`: the outcome was inactive.
Regarding `CCCC1=Nc2cc(C(=O)N3CCC(C)CC3)ccc2Sc2ccc(C)cc21`, the result was inactive.
As for `CC1=C(C(=O)OC2CCCCCC2)C(c2cccc(Cl)c2)CC(=O)N1` (stereo not drawn), the compound was classed as inactive.
Consider `COc1ccccc1C(=O)OCc1cc(=O)n2nc(C(C)C)sc2n1`, for which the “activity change, negative = inhibition” value was inactive: -5.74%.
On to `CC(=O)Nc1ccc(NC(=O)CCS(=O)(=O)c2ccc3c(c2)CC(=O)N3C)cc1`, for which the “activity change, negative = inhibition” value was inactive: 54.9%.
In the case of `COc1ccc(-c2noc(-c3ccc(NCC4CCCO4)c([N+](=O)[O-])c3)n2)cc1OC` (stereo not drawn), the compound was classed as inactive.
For the compound `COc1ccccc1CNC(=O)c1oc2ccc3c(c2c1C)C(=O)CC(C)(C)O3`, the compound was called inactive.
For `CC1CCCCN1CCCNC(=O)c1cc(Sc2ccc(Cl)cc2)nc2ccccc12` (stereo not drawn), the “activity change, negative = inhibition” value was inactive: -5.99%.
Take `CCOC(=O)CC(=O)CSc1nc2ccccc2c(=O)n1CCc1ccc(S(N)(=O)=O)cc1`: the “activity change, negative = inhibition” value is inactive: 5.24%.
Regarding `CC1=Nc2cc(C(=O)NCCc3ccc(Cl)cc3)ccc2Sc2c(C)ccc(C)c21`, the outcome was inactive.
For the compound `CC1Cc2cc(S(=O)(=O)NCc3ccc(N(C)C)cc3)ccc2N1C(=O)C1CCC1` (stereo not drawn), the “activity change, negative = inhibition” value was inactive: 15.5%.
Same read-out and setting: next, `CCN1C(=O)C(Cc2nc3ccccc3c(=O)n2-c2ccc(OC)cc2)c2ccccc21` (stereo not drawn): inactive: -2.18%.
